From PMC3353973 (PLoS ONE, 2012)

Tested on: HIV-1 LAI/IIIB
Conditions: TZM-bl cells; for IC50: read-out: IC50, inhibition of HIV-1 infectivity, strain IIIB, X4 strain LAI/IIIB, moi 4, luciferase read-out after 48 h

SMILES | IC50 [nM] | Potency increase versus the untagged HR-derived peptide (HIV-P2), strain IIIB (ratio of IC50) [fold]
CC[C@H](C)[C@H](NC(=O)[C@H](CC(C)C)NC(=O)[C@H](CO)NC(=O)[C@H](Cc1c[nH]cn1)NC(=O)[C@@H](NC(=O)[C@H](CC(C)C)NC(=O)[C@H](CO)NC(=O)[C@@H](NC(=O)[C@H](Cc1ccc(O)cc1)NC(=O)[C@H](CC(N)=O)NC(=O)[C@H](CC(N)=O)NC(=O)[C@@H](NC(=O)[C@H](CCC(=O)O)NC(=O)[C@H](CCCNC(=N)N)NC(=O)[C@H](CC(=O)O)NC(=O)[C@H](Cc1c[nH]c2ccccc12)NC(=O)[C@H](CCC(=O)O)NC(=O)[C@H](CCSC)NC(=O)[C@H](Cc1c[nH]c2ccccc12)NC(C)=O)[C@@H](C)CC)[C@@H](C)O)[C@@H](C)CC)C(=O)N[C@@H](CCC(=O)O)C(=O)N[C@@H](CCC(=O)O)C(=O)N[C@@H](CO)C(=O)N[C@@H](CCC(N)=O)C(=O)N[C@@H](CC(N)=O)C(=O)N[C@@H](CCC(N)=O)C(=O)N[C@@H](CCC(N)=O)C(=O)N[C@@H](CCC(=O)O)C(=O)N[C@@H](CCCCN)C(=O)N[C@@H](CC(N)=O)C(=O)N[C@@H](CCC(=O)O)C(=O)N[C@@H](CCC(N)=O)C(=O)N[C@@H](CCC(=O)O)C(=O)N[C@@H](CC(C)C)C(=O)N[C@@H](CC(C)C)C(=O)NCC(=O)N[C@@H](CO)C(=O)NCC(=O)N[C@@H](CSCC(N)=O)C(N)=O [HIV-P2] | 31.1 ± 36 | 
CC[C@H](C)[C@H](NC(=O)[C@H](CC(C)C)NC(=O)[C@H](CO)NC(=O)[C@H](Cc1c[nH]cn1)NC(=O)[C@@H](NC(=O)[C@H](CC(C)C)NC(=O)[C@H](CO)NC(=O)[C@@H](NC(=O)[C@H](Cc1ccc(O)cc1)NC(=O)[C@H](CC(N)=O)NC(=O)[C@H](CC(N)=O)NC(=O)[C@@H](NC(=O)[C@H](CCC(=O)O)NC(=O)[C@H](CCCNC(=N)N)NC(=O)[C@H](CC(=O)O)NC(=O)[C@H](Cc1c[nH]c2ccccc12)NC(=O)[C@H](CCC(=O)O)NC(=O)[C@H](CCSC)NC(=O)[C@H](Cc1c[nH]c2ccccc12)NC(C)=O)[C@@H](C)CC)[C@@H](C)O)[C@@H](C)CC)C(=O)N[C@@H](CCC(=O)O)C(=O)N[C@@H](CCC(=O)O)C(=O)N[C@@H](CO)C(=O)N[C@@H](CCC(N)=O)C(=O)N[C@@H](CC(N)=O)C(=O)N[C@@H](CCC(N)=O)C(=O)N[C@@H](CCC(N)=O)C(=O)N[C@@H](CCC(=O)O)C(=O)N[C@@H](CCCCN)C(=O)N[C@@H](CC(N)=O)C(=O)N[C@@H](CCC(=O)O)C(=O)N[C@@H](CCC(N)=O)C(=O)N[C@@H](CCC(=O)O)C(=O)N[C@@H](CC(C)C)C(=O)N[C@@H](CC(C)C)C(=O)NCC(=O)N[C@@H](CO)C(=O)NCC(=O)N[C@@H](CSC1CC(=O)N(CCCC(=O)NCCOCCOCCOCCOCCC(=O)NCCN(CCNC(=O)CCOCCOCCOCCOCCNC(=O)CCCN2C(=O)CC(SC[C@H](NC(=O)CNC(=O)[C@H](CO)NC(=O)CNC(=O)[C@H](CC(C)C)NC(=O)[C@H](CC(C)C)NC(=O)[C@H](CCC(=O)O)NC(=O)[C@H](CCC(N)=O)NC(=O)[C@H](CCC(=O)O)NC(=O)[C@H](CC(N)=O)NC(=O)[C@H](CCCCN)NC(=O)[C@H](CCC(=O)O)NC(=O)[C@H](CCC(N)=O)NC(=O)[C@H](CCC(N)=O)NC(=O)[C@H](CC(N)=O)NC(=O)[C@H](CCC(N)=O)NC(=O)[C@H](CO)NC(=O)[C@H](CCC(=O)O)NC(=O)[C@H](CCC(=O)O)NC(=O)[C@@H](NC(=O)[C@H](CC(C)C)NC(=O)[C@H](CO)NC(=O)[C@H](Cc3c[nH]cn3)NC(=O)[C@@H](NC(=O)[C@H](CC(C)C)NC(=O)[C@H](CO)NC(=O)[C@@H](NC(=O)[C@H](Cc3ccc(O)cc3)NC(=O)[C@H](CC(N)=O)NC(=O)[C@H](CC(N)=O)NC(=O)[C@@H](NC(=O)[C@H](CCC(=O)O)NC(=O)[C@H](CCCNC(=N)N)NC(=O)[C@H](CC(=O)O)NC(=O)[C@H](Cc3c[nH]c4ccccc34)NC(=O)[C@H](CCC(=O)O)NC(=O)[C@H](CCSC)NC(=O)[C@H](Cc3c[nH]c4ccccc34)NC(C)=O)[C@@H](C)CC)[C@@H](C)O)[C@@H](C)CC)[C@@H](C)CC)C(N)=O)C2=O)CCO[C@H]2CC[C@@]3(C)C(=CC[C@H]4[C@@H]5CC[C@H]([C@H](C)CCCC(C)C)[C@@]5(C)CC[C@@H]43)C2)C1=O)C(N)=O (stereo partly drawn) [HIV-P4] | 0.21 ± 0.37 | 150
